The source gives no read counts; variants with many changes may rest on few reads.
B1: LINE1-mini (parent)
chain: GGCAGAGCUCAACACAGCGUGGCAAAGUGGCUGUGGCUAGACUGCC

Variants of: B1
Test: self-cleavage, relative activity (ratio to wild type); higher = more cleavage; in vitro, sequencing; the parent is a self-cleaving ribozyme

Row | Variant | self-cleavage
1 | AGCAGAGCUCAGCACAGCGUGGUAACGUGGCUGUGGCUAGACUGCC [G1A A12G C23U A26C] | 0.01
2 | AGCAGAGCUAAACACCGCGUGGCAAAGUGGCUGUGGAUAGACUGCC [G1A C10A A16C C37A] | 0.05
3 | AGCAGAGUUCAACACAGUGGGGCUAAGUGGCUGUGGCUAGAGUGCC [G1A C8U C18U U20G A24U C42G] | 0.25
4 | AGCAGAGCUCACCACAGCGUGGGAAAGUGGAUGUUGCUAGAUGGCC [G1A A12C C23G C31A G35U C42U U43G] | 0
5 | AGGAGAGCUAAACACAGCGUGGCAAAGUGACUGUGGCUAGACCGCC [G1A C3G C10A G30A U43C] | 0.05
6 | AGCAGAGAUCAACACAGCUUGGCAAAGUGGGUGUGGAUAGACUGCC [G1A C8A G19U C31G C37A] | 0.02
7 | AGCAGAGCUCAACACGGCGUGGCAAAGGGGCUGUGGCUAGACUGCC [G1A A16G U28G] | 0.11
8 | AGCAGAGCUCCUCACAGCGUUGCACAGUGGCUGUGGCAAGACUGGC [G1A A11C A12U G21U A25C U38A C45G] | 0.01
9 | AGCAGAGCUCAUCACAGCGUGGCAAGGUGGCUGCGGCUAGACUGCC [G1A A12U A26G U34C] | 0.01
10 | AGCUGAGCUCAACACAGCGUGGCGAAGUGGCUGUGGCUAGACUGCC [G1A A4U A24G] | 0.16
11 | AGCGAAGCACAACACAGCGUGGCACAGUGGCUGUGGCUAGACUGCC [G1A A4G G5A U9A A25C] | 0.68
12 | AGAAGAGCUCAACACAGCGUGGUAAAGUGGCUGUGGCUAGACUGCA [G1A C3A C23U C46A] | 2.84
13 | AGCAGGGCUCAACACAGCGUGGCAAAGUGGCUGUCGCCAGACUGCC [G1A A6G G35C U38C] | 0.02
14 | AGCAGAGCUCAACACAGCGUGGCAAUGUGGCUGUGGCUAGACUGUC [G1A A26U C45U] | 1.74
15 | AGCAGAGCUCAACUCAGCGUGGAAAAGUGGCUGUGGCUAGACUGCC [G1A A14U C23A] | 1.2
16 | AGGAGAGCUCAACACUGCGUGGCCAAGUAGCUGUGGCUAGACUGCC [G1A C3G A16U A24C G29A] | 0.21
17 | AGCAGAGUUCAAAACAGCGUGGCAAAGUGGUUCUGGCUAGACUGCC [G1A C8U C13A C31U G33C] | 0.92
18 | AGUAGAGCUCAACACAGCGUGGCAAAGUGGCUGUGGCUAGAUUGCC [G1A C3U C42U] | 0.14
19 | AGCAGAGCUCAACACAGCGUGGCAUAGUGGCUGUGGCUAGUCGGCC [G1A A25U A41U U43G] | 0.05

Row | Variant | self-cleavage
20 | AGGAGAGCUCACCACAGCGUGGCAAAGUGGCUGUUGCUCGACUGCC [G1A C3G A12C G35U A39C] | 0.04
21 | AGAAGAGCUCAACAAAGCGUGGCAAAGUGGCUGUGACUAGACUGCC [G1A C3A C15A G36A] | 1.64
22 | AGAAGAGCUCAACACAGCGUGGCACAGUGGCUGUGGCUAGACUGCC [G1A C3A A25C] | 2.54
23 | AGCAGAGCUCGACACAACGUGGCAAAGUGUCUGUGGCUAGACUGCC [G1A A11G G17A G30U] | 0.03
24 | AGCAGAGCUCAACACAGCGUGGCGAAGGGGCUGUGGCUAGACUGCC [G1A A24G U28G] | 0.38
25 | AGCAGAGCUCAACACAGCGUGGCAAGGUGGCCUUGGCUAGACUGCC [G1A A26G U32C G33U] | 0.02
26 | AGCAGCGCUCUACACAGCGUGGCAAAGUGGCUGUGCCUAGACUGCC [G1A A6C A11U G36C] | 0.21
27 | AGCGGAGCUUAACACAGCGUGGGAAAUUGCCUGUGAGUAGACUGCC [G1A A4G C10U C23G G27U G30C G36A C37G] | 0.07
28 | AGCAGUACUCAACACACCGUGGCAAAGUGGCUGUGGCUAGACUGCC [G1A A6U G7A G17C] | 0.31
29 | AGCAGAGGUCAACACAGCGUGGCAUAUUGGCUGAGGCUAGACUGCC [G1A C8G A25U G27U U34A] | 0.07
30 | AGCAGUGCUCAACACAGCGUGGCAAAGUGGCUGAGGCUAGAAUGCC [G1A A6U U34A C42A] | 0.04
31 | AGCAGAGCUAAACACCGCGUGAUAAAGUGGUUGUGGCUAGACUGCC [G1A C10A A16C G22A C23U C31U] | 0.03
32 | AGCAGAGCUAAACACAGCGUGGCACAGUGGCUGUGGCUAGACUGCC [G1A C10A A25C] | 0.1
33 | AGCCGAGCUCAACACAGCGUUGCAAAGUGGCUGUGGCUAUACUGCC [G1A A4C G21U G40U] | 0.18
34 | AGCAGAGCUCGACAUAGCGUGGCACAGAGGCUGUCGCUAGACUGCC [G1A A11G C15U A25C U28A G35C] | 0.04
35 | AGCAGAGCUCAACCCAGCGUGGCAAAGUGUCUGUGGCUAGACUGCG [G1A A14C G30U C46G] | 0.05
36 | AGCUGAGCUCAACACAGCGUGGCAAAGUGGCUGUUGCUACACUGCC [G1A A4U G35U G40C] | 0.08
37 | AGCUGAGCUCAACACAGCGUGGCAAAGUGGCUGUGGCUAGACUGAC [G1A A4U C45A] | 0.15
38 | AGCAGAGCUAAACACAGCGUGACAAAGUGGCUGUGGCUAGACUGCC [G1A C10A G22A] | 0.04

Row | Variant | self-cleavage
39 | AGCAGAGAUCAACACAGCGUGGCAAAGUGGCUGUGGCUAUACUGCC [G1A C8A G40U] | 0.14
40 | AGCAGGGCUCGACACAGCGCGGCAAAGUGGCUGUGGCUAGACUGCC [G1A A6G A11G U20C] | 0.03
41 | AGAAGAGCUCAACGCAGCGUGGCAAAGUGGCUGUGGCUAGUCUGCC [G1A C3A A14G A41U] | 0.36
42 | AGCUGAGCUCAACACAGCGUGCCAAAGUGGCUGUGGCUAGACUGCC [G1A A4U G22C] | 0.06
43 | AGCAGAGCUCUACACAGCAUGGCAAAGUGGCUGUGGCUAGACUGCC [G1A A11U G19A] | 0
44 | AGCAGAGCUCAACACCGCGUGGCAAAGUGGAUGUAGCUAGACUACC [G1A A16C C31A G35A G44A] | 0.02
45 | AGUAGAGCUCAACACAGCGUGGCAAAGUGUCUGUGGCUAGACUGCC [G1A C3U G30U] | 0.11
46 | AGCAGAGCUAAACACAGCGAGGCAAAGUGAAUGUGCCUAGACUGCA [G1A C10A U20A G30A C31A G36C C46A] | 0.04
47 | AGCAGUGCUCGACACAGCGUGGCAAAGUGGCUGUGGGUAGAUUGCC [G1A A6U A11G C37G C42U] | 0
48 | AGCAGAGCUCAACUCAGCGUGGCAAAGUGGCUGUGGCUGGACUGCC [G1A A14U A39G] | 0.34
49 | AGCAGAGCUCAACACGGCGUGGCAAAGUGGCGGUGGUUAGUCUGCC [G1A A16G U32G C37U A41U] | 0.02
50 | AGCUGAGCUCAACACAGCGUGGCAAAGUGGCUGCGGCUAUACUGCC [G1A A4U U34C G40U] | 0.12
51 | AGCAGAGCUCAACCCAGCGUGGUAAUGUGGCUGUGGCUAGACUGCC [G1A A14C C23U A26U] | 0.33
52 | AGCAGCGCUCAACACAGCGUUGCAAAGUGGCUGCGGCUAGACUGCC [G1A A6C G21U U34C] | 0.07
53 | AGGAGAGCUCAACAAAGCUUGGCAAAGUGGCUGUGGCUAAACUGCC [G1A C3G C15A G19U G40A] | 0.15
54 | AGCAGAGCUCUACACAGCGUCGCAAAGUGGCUGUGGAUAAACUGCC [G1A A11U G21C C37A G40A] | 0.01
55 | AGCAGAGCUCAUCACACCGUGGCAAAGUGGCUGUGGCUAGACUGCG [G1A A12U G17C C46G] | 0.6
56 | AGCAGAGAUCAACACAGCGUCGCAAAGUGGGUGUGGCUAGACUGCC [G1A C8A G21C C31G] | 0.17

From the RNAGym collection of RNA variant scans (doi:10.7554/elife.90254)
